Read counts are not given, so values of variants with three or more changes are uncertain.
B1: OR4K15 (parent)
chain: GUUAACGGUCAUAGGCCAUGGAAACUAGGAGCACCAUUUCGCUGCCAGUGAAGAAAUGAACAAAGAAAAUCUGGGCCAGGCAGGCAUCAAAAGAAAUAGUCUUGCGCUCAACCAGAAAGUCUGUAAUCAUUUUAAGGGUA

Variants of: B1
Experiment: self-cleavage, relative activity (ratio to wild type); higher = more cleavage; in vitro, sequencing; the parent is a self-cleaving ribozyme

| Variant | self-cleavage |
| --- | --- |
| A4G U37C A118G | 0.95 |
| A30G U57A A68G A69G U72A | 0.21 |
| A64G U87C A94G | 1.03 |
| A5U A51G A62G | 2.37 |
| A30U A78U A86G C107U U139C | 0.03 |
| A22G U43C A51G | 2.1 |
| A13G U102G A110G U120C G123A | 0 |
| U12A A54G A63G U130C U132C | 1.02 |
| A78G U100C U122G | 0.72 |
| U37C A90G U97C A114G | 0.14 |
| U9C U39C A116G | 1.29 |
| U9C U12G A64G A90G A125U A126G | 1.14 |
| U39C A55G U70C A82G U130C | 0.26 |
| U37C A62G A69G A95G | 1.54 |
| C10U U49C U57A | 0.95 |
| G80A A118G A125G | 0.02 |
| A82G G84U A86G A110G A116G | 0.01 |
| U37G A59G U97C | 0.64 |
| U37C A82U C105U | 0.16 |
| A4G A23G C46U A51G A116U | 0.36 |
| A5G A47U A110G U122C G123A | 0.06 |

| Variant | self-cleavage |
| --- | --- |
| A5U A11C A68G A82U | 0.31 |
| A18U U38G U57C U87A | 1.14 |
| U38C A59G A62G A118G | 0.31 |
| U70C U87C A89U | 0.69 |
| A22G U43C A89U U103A U133C | 1.01 |
| U38C A90G A110G | 0.38 |
| U100A A110G A111G A117G | 0.01 |
| U39C A89U A110C | 0.24 |
| A4G U37C A54G | 1.09 |
| A11G A47C A52G A59G | 0.39 |
| U43A A111G U132C | 0 |
| U12C C34U A94G U103C U127C | 0.3 |
| A22G U49G A55G U70C A90U U100C U108C | 0.01 |
| A62G A117G U122C | 1.25 |
| A11G A47G A54G A67G | 1.81 |
| A59G A95G U100C | 2.36 |
| A23G A33G A114G | 0.3 |
| U19C U97G U130C | 0.97 |
| U19C A60G U87C | 0.84 |
| A111G A114U A134G | 0 |
| U9C A36C A92C A117G U124A | 1.3 |

| Variant | self-cleavage |
| --- | --- |
| A18G A62G U72C | 0.27 |
| U3C U39A U57A U70C | 0.19 |
| A22G G83A A116G U131C | 0.44 |
| A52G A62G A63G U127C | 0.82 |
| U19C U87C U108A A111G | 0 |
| A68G U70C G80U U102C A111G | 0.01 |
| A56G U70C A91G | 0.51 |
| A18U A114U U120C | 0.01 |
| A78U U97C U120C | 0.15 |
| A23G A82U U122A | 0.22 |
| A18U A78G C105A | 0 |
| U9A A67G A95G A110U | 1.68 |
| U2A A91G A96G A135G | 0.47 |
| U38C A89G A114U A126G | 0.04 |
| A63G G99A U122A | 0.21 |
| A69G A82U U127A | 0.23 |
| A23G A52G A86U | 1.41 |
| A69G A90G A96G U100C | 2.59 |
| A13U A90G U122C U130C | 0.92 |
| A22G A23G A60U | 2.17 |
| U39C A51G U131C | 1.89 |

| Variant | self-cleavage |
| --- | --- |
| U39C A89U U139A | 1.6 |
| A18U U39C A56G A62G A125G | 0.32 |
| A92C A111U A126U | 0.05 |
| U37C U43C G58U A59G U102C | 2.39 |
| A27G A33G U87C | 0.79 |
| U12A A68G A91G | 0.66 |
| U2C A56G A91G | 0.7 |
| A5G A60G A98G | 1.01 |
| U37C A111G U120A | 0.02 |
| A18G A23G U70C U102C | 0.83 |
| A13G A47G C71A U72C U130C | 0.09 |
| C6U A33U U49G A52G A68G | 0.58 |
| A11G A64G U122C | 0.63 |
| U57C A118G U120A | 1.79 |
| U19C A94G U108C A140U | 0.02 |
| U2C U43A U70C | 0.69 |
| A30G U37C A68U A110G | 0.22 |
| U2C A22G A59U | 0.52 |
| A5U A36C A52G U87C | 0.61 |
| A51U A54G A69G U122C A140G | 1.15 |
| U3C A5G A11G | 0.72 |

Reference: the RNAGym collection of RNA variant scans (doi:10.7554/elife.90254)
